The values that follow come from article PMC9911399, “Two distinct binding modes provide the RNA-binding protein RbFox with extraordinary sequence specificity”.

First the molecules themselves.
B1: GUCCGGG (DNA:RNA)
RNA: GGGAGACCGGAAUUCAGAUUGUCCGUCCGGGUUAAAUCCCGUCGUAGCCACCA
DNA 1: CAATCTGAATTCCGGTCTCCC
DNA 2: TGGTGGCTACGACGGGATT
B2: AGGGUCU (DNA:RNA)
RNA: GGGAGACCGGAAUUCAGAUUGUCCAGGGUCUUUAAAUCCCGUCGUAGCCACCA
DNA 1: CAATCTGAATTCCGGTCTCCC
DNA 2: TGGTGGCTACGACGGGATT
B3: CGGGGCG (DNA:RNA)
RNA: B2 RNA with A25C, U29G, U31G
DNA 1: CAATCTGAATTCCGGTCTCCC
DNA 2: TGGTGGCTACGACGGGATT
B4: UAAGUAA (DNA:RNA)
RNA: B2 RNA with A25U, G26A, G27A, C30A, U31A
DNA 1: CAATCTGAATTCCGGTCTCCC
DNA 2: TGGTGGCTACGACGGGATT
B5: CCAAGCU (DNA:RNA)
RNA: B2 RNA with A25C, G26C, G27A, G28A, U29G
DNA 1: CAATCTGAATTCCGGTCTCCC
DNA 2: TGGTGGCTACGACGGGATT
B6: UGCCGAU (DNA:RNA)
RNA: B1 RNA with G25U, U26G, G30A, G31U
DNA 1: CAATCTGAATTCCGGTCTCCC
DNA 2: TGGTGGCTACGACGGGATT
B7: AGUUGGU (DNA:RNA)
RNA: B2 RNA with G27U, G28U, U29G, C30G
DNA 1: CAATCTGAATTCCGGTCTCCC
DNA 2: TGGTGGCTACGACGGGATT
B8: AUUUCUA (DNA:RNA)
RNA: B2 RNA with G26U, G27U, G28U, U29C, C30U, U31A
DNA 1: CAATCTGAATTCCGGTCTCCC
DNA 2: TGGTGGCTACGACGGGATT
B9: UCUGGCC (DNA:RNA)
RNA: B2 RNA with A25U, G26C, G27U, U29G, U31C
DNA 1: CAATCTGAATTCCGGTCTCCC
DNA 2: TGGTGGCTACGACGGGATT
B10: UGCAAAG (DNA:RNA)
RNA: B1 RNA with G25U, U26G, C28A, G29A, G30A
DNA 1: CAATCTGAATTCCGGTCTCCC
DNA 2: TGGTGGCTACGACGGGATT
B11: AGUAAAA (DNA:RNA)
RNA: B2 RNA with G27U, G28A, U29A, C30A, U31A
DNA 1: CAATCTGAATTCCGGTCTCCC
DNA 2: TGGTGGCTACGACGGGATT
B12: CGACCGC (DNA:RNA)
RNA: B1 RNA with G25C, U26G, C27A, G29C, G31C
DNA 1: CAATCTGAATTCCGGTCTCCC
DNA 2: TGGTGGCTACGACGGGATT
B13: AUAGGGA (DNA:RNA)
RNA: B1 RNA with G25A, C27A, C28G, G31A
DNA 1: CAATCTGAATTCCGGTCTCCC
DNA 2: TGGTGGCTACGACGGGATT
B14: UGUCCUA (DNA:RNA)
RNA: B2 RNA with A25U, G27U, G28C, U29C, C30U, U31A
DNA 1: CAATCTGAATTCCGGTCTCCC
DNA 2: TGGTGGCTACGACGGGATT
B15: UGCGGGC (DNA:RNA)
RNA: B1 RNA with G25U, U26G, C28G, G31C
DNA 1: CAATCTGAATTCCGGTCTCCC
DNA 2: TGGTGGCTACGACGGGATT
B16: GCCUACA (DNA:RNA)
RNA: B1 RNA with U26C, C28U, G29A, G30C, G31A
DNA 1: CAATCTGAATTCCGGTCTCCC
DNA 2: TGGTGGCTACGACGGGATT
B17: CAAUUUU (DNA:RNA)
RNA: B2 RNA with A25C, G26A, G27A, G28U, C30U
DNA 1: CAATCTGAATTCCGGTCTCCC
DNA 2: TGGTGGCTACGACGGGATT
B18: UGAUGAU (DNA:RNA)
RNA: B2 RNA with A25U, G27A, G28U, U29G, C30A
DNA 1: CAATCTGAATTCCGGTCTCCC
DNA 2: TGGTGGCTACGACGGGATT
B19: AGUCGUC (DNA:RNA)
RNA: B2 RNA with G27U, G28C, U29G, C30U, U31C
DNA 1: CAATCTGAATTCCGGTCTCCC
DNA 2: TGGTGGCTACGACGGGATT
B20: UAUAGCU (DNA:RNA)
RNA: B2 RNA with A25U, G26A, G27U, G28A, U29G
DNA 1: CAATCTGAATTCCGGTCTCCC
DNA 2: TGGTGGCTACGACGGGATT
B21: UGACUAA (DNA:RNA)
RNA: B2 RNA with A25U, G27A, G28C, C30A, U31A
DNA 1: CAATCTGAATTCCGGTCTCCC
DNA 2: TGGTGGCTACGACGGGATT
B22: GCACUUC (DNA:RNA)
RNA: B1 RNA with U26C, C27A, G29U, G30U, G31C
DNA 1: CAATCTGAATTCCGGTCTCCC
DNA 2: TGGTGGCTACGACGGGATT
B23: AGCACAU (DNA:RNA)
RNA: B2 RNA with G27C, G28A, U29C, C30A
DNA 1: CAATCTGAATTCCGGTCTCCC
DNA 2: TGGTGGCTACGACGGGATT
B24: CCUGAAA (DNA:RNA)
RNA: B2 RNA with A25C, G26C, G27U, U29A, C30A, U31A
DNA 1: CAATCTGAATTCCGGTCTCCC
DNA 2: TGGTGGCTACGACGGGATT
B25: ACUUUAU (DNA:RNA)
RNA: B2 RNA with G26C, G27U, G28U, C30A
DNA 1: CAATCTGAATTCCGGTCTCCC
DNA 2: TGGTGGCTACGACGGGATT
B26: CCCUGUU (DNA:RNA)
RNA: B1 RNA with G25C, U26C, C28U, G30U, G31U
DNA 1: CAATCTGAATTCCGGTCTCCC
DNA 2: TGGTGGCTACGACGGGATT
B27: AACUGAU (DNA:RNA)
RNA: B2 RNA with G26A, G27C, G28U, U29G, C30A
DNA 1: CAATCTGAATTCCGGTCTCCC
DNA 2: TGGTGGCTACGACGGGATT
B28: AAUUCUC (DNA:RNA)
RNA: B2 RNA with G26A, G27U, G28U, U29C, C30U, U31C
DNA 1: CAATCTGAATTCCGGTCTCCC
DNA 2: TGGTGGCTACGACGGGATT
B29: GCUCUUU (DNA:RNA)
RNA: B2 RNA with A25G, G26C, G27U, G28C, C30U
DNA 1: CAATCTGAATTCCGGTCTCCC
DNA 2: TGGTGGCTACGACGGGATT
B30: GACUAGU (DNA:RNA)
RNA: B1 RNA with U26A, C28U, G29A, G31U
DNA 1: CAATCTGAATTCCGGTCTCCC
DNA 2: TGGTGGCTACGACGGGATT
B31: AGUGGUU (DNA:RNA)
RNA: B2 RNA with G27U, U29G, C30U
DNA 1: CAATCTGAATTCCGGTCTCCC
DNA 2: TGGTGGCTACGACGGGATT

Where a chain is given by its changes, count along the chain named. This is one part of the list.

This assay concerns the target T1, RBFOX1 RRM RbFoxmut (Fox-RRM*) (Homo sapiens, UniProt Q9NWB1 109-208, R118D;E147R;N151S;E152T).
T1 sequence: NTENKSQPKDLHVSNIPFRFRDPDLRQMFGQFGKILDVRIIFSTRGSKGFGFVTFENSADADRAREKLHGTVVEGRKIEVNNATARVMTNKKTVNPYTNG
Briefly: EMSA; HiTS-Eq, 1 nM pool, 10 min; buffer printed only for the single-RNA assays: 10 mM Tris pH 7.5, 150 mM NaCl, 3.4 mM EDTA, 0.001% NP-40, 30 C. As to conditions: tags: His6 N-terminal (pET28a); label: 5' 32P. Put shortly:
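A pool of RNA with 7 randomized nucleotides, 5′-radiolabelled and with DNA-annealed flanks, was equilibrated at 1 nM for 10 min in 50 µL with purified RbFox RRM, wild type or mutant, across increasing protein concentrations. Free RNA was separated by 8% native PAGE, excised, reverse-transcribed, barcoded by PCR and sequenced. Relative association constants were obtained from read-count changes of each RNA species versus the control reaction and normalised to the cognate motif.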
For orientation: Mobility shift assays separate free from complexed probe on a gel.
For B1, the binding signal was 0.0861 KA relative to UGCAUGU.

As to B2, the binding signal is 0.077 KA relative to UGCAUGU. For B3, the binding signal is 0.16 KA relative to UGCAUGU.

On to B4, for which the binding signal was 0.0839 KA relative to UGCAUGU. With B5 the figure was 0.0711 KA relative to UGCAUGU; with B6, 0.0817 KA relative to UGCAUGU; with B7, 0.14 KA relative to UGCAUGU. With B8 the figure was 0.0906 KA relative to UGCAUGU. B9: the binding signal is 0.161 KA relative to UGCAUGU. On to B10, for which the binding signal was 0.0927 KA relative to UGCAUGU.

In the case of B11, the binding signal is 0.106 KA relative to UGCAUGU. Regarding B12, the binding signal is 0.0792 KA relative to UGCAUGU. As for B13, the figure is 0.0721 KA relative to UGCAUGU. With B14 the figure was 0.084 KA relative to UGCAUGU; with B15, 0.091 KA relative to UGCAUGU; with B16, 0.0896 KA relative to UGCAUGU. As to B17, the binding signal was 0.0669 KA relative to UGCAUGU. As to B18, the binding signal was 0.0858 KA relative to UGCAUGU. As for B19, the figure is 0.117 KA relative to UGCAUGU. As to B20, the binding signal was 0.098 KA relative to UGCAUGU. As for B21, the figure is 0.0814 KA relative to UGCAUGU; as for B22, 0.0473 KA relative to UGCAUGU. As to B23, the binding signal was 0.0715 KA relative to UGCAUGU.

For the molecule B24, the binding signal is 0.0608 KA relative to UGCAUGU. Consider B25, for which the binding signal was 0.135 KA relative to UGCAUGU. With B26 the figure was 0.102 KA relative to UGCAUGU. As for B27, the figure is 0.0668 KA relative to UGCAUGU. In the case of B28, the binding signal is 0.0696 KA relative to UGCAUGU. With B29 the figure was 0.0599 KA relative to UGCAUGU.

In the case of B30, the binding signal is 0.11 KA relative to UGCAUGU.

As for B31, the binding signal is 0.117 KA relative to UGCAUGU.
